Consider one molecule from the supplement of paper PMC8728848.

The list shows a part of the results.

Common to all, as to test: glycan array binding signal (z-score within array); higher = stronger binding
Common to all, as to details: glycan notation: IUPAC condensed, linker removed

The target of assay [1] is Gal(a1-3)Gal(b1-4)GlcNAc(b1-2)Man. Put shortly:
(§1)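 Arrays were curated from the Consortium for Functional Glycomics database, 3228 in total, and kept only where the protein sequence was available. Binding is expressed as a within-array Z-score. This score was averaged across arrays of the same protein sequence at different concentrations or buffers and across linkers, and negative values can be read as non-binding.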

For assay [2], the target named is Gal(a1-3)Gal(b1-4)GlcNAc(b1-2)Man(a1-3)[Gal(a1-3)Gal(b1-4)GlcNAc(b1-2)Man(a1-6)]Man(b1-4)GlcNAc(b1-4)GlcNAc. Put shortly:
as §1

The target in assay [3] is Gal(a1-3)Gal(b1-4)GlcNAc(b1-3)GalNAc. An outline of the steps:
as §1

Assay [4] concerns the target Gal(a1-3)Gal(b1-4)GlcNAc(b1-6)GalNAc. Put shortly:
as §1

Assay [5] has as its target Gal(a1-3)Gal(b1-4)[Fuc(a1-3)]GlcNAc. Put shortly: as §1
Assay [6] deals with Gal(a1-3)Gal(b1-4)[Fuc(a1-3)]GlcNAc(b1-2)Man(a1-3)[Gal(a1-3)Gal(b1-4)[Fuc(a1-3)]GlcNAc(b1-2)Man(a1-6)]Man(b1-4)GlcNAc(b1-4)GlcNAc. Put shortly: as §1
Another assay concerns the target Gal(a1-3)GalNAc. Put shortly: as §1
Assay [7] concerns the target Gal(a1-3)[Gal(a1-4)]Gal(b1-4)GlcNAc. An outline of the steps:
as §1

Assay [8] deals with Gal(a1-4)Gal(b1-3)GlcNAc(b1-2)Man(a1-3)[Gal(a1-4)Gal(b1-3)GlcNAc(b1-2)Man(a1-6)]Man(b1-4)GlcNAc(b1-4)GlcNAc. Put shortly: as §1
The next assay has as its target Gal(a1-4)Gal(b1-4)Glc. Put shortly: as §1
A further assay addresses Gal(a1-4)Gal(b1-4)GlcNAc. Put shortly: as §1
Assay [9] has as its target Gal(a1-4)Gal(b1-4)GlcNAc(b1-2)Man(a1-3)[Gal(a1-4)Gal(b1-4)GlcNAc(b1-2)Man(a1-6)]Man(b1-4)GlcNAc(b1-4)GlcNAc. An outline of the steps:
as §1

Assay [10] addresses Gal(a1-4)Gal(b1-4)GlcNAc(b1-3)Gal(b1-4)Glc. Put shortly:
as §1

A further assay concerns the target Gal(a1-4)GlcNAc. Put shortly: as §1
A further assay concerns the target Gal(a1-6)Glc. An outline of the steps: as §1
In a further assay the target is Gal(b1-2)Gal. An outline of the steps:
as §1

The target of a further assay is Gal(b1-3)Gal. Put shortly:
as §1

The target of a further assay is Gal(b1-3)Gal(b1-4)GlcNAc. An outline of the steps:
as §1

The next assay deals with Gal(b1-3)GalNAc. Put shortly:
as §1

The target of assay [11] is Gal(b1-3)GalNAc(a1-3)[Fuc(a1-2)]Gal(b1-4)Glc. An outline of the steps:
as §1

The target in assay [12] is Gal(b1-3)GalNAc(a1-3)[Fuc(a1-2)]Gal(b1-4)GlcNAc. Put shortly: as §1
A further assay has as its target Gal(b1-3)GalNAc(b1-3)Gal. An outline of the steps: as §1

B1: Cohesin-hLangerin (Homo sapiens) (protein)
chain: LDDLDAVRIKVDTVNAKPGDTVRIPVRFSGIPSKGIANCDFVYSYDPNVLEIIEIEPGDIIVDPNPDKSFDTAVYPDRKIIVFLFAEDSGTGAYAITKDGVFATIVAKVKEGAPNGLSVIKFVEVGGFANNDLVEQKTQFFDGGANVGDTTEPATPTTPVTTPTTTDDLDAASYPRFMGTISDVKTNVQLLKGRVDNISTLDSEIKKNSDGMEAAGVQIQMVNESLGYVRSQFLKLKTSVEKANAQIQILTRSWEEVSTLNAQIPELKSDLEKASALNTKIRALQGSLENMSKLLKRQNDILQVVSQGWKYFKGNFYYFSLIPKTWYSAEQFCVSRNSHLTSVTSESEQEFLYKTAGGLIYWIGLTKAGMEGDWSWVDDTPFNKVQSARFWIPGEPNNAGNNEHCGNIKAPSLQAWNDAPCDKTFLFICKRPYVPSEPHHHHHH
In the case of B1, the “glycan array binding signal (z-score)” value in assay [1] was -0.36; in assay [2], -0.389; in [3] it was -0.348; in [4], -0.136; in [5], -0.372; in assay [6] it was 0.41. Moreover, the “glycan array binding signal (z-score)” value with Gal(a1-3)GalNAc was -0.412; in assay [7], -0.426; in assay [8] it was 0.877; with Gal(a1-4)Gal(b1-4)Glc, -0.278; with Gal(a1-4)Gal(b1-4)GlcNAc it was -0.301; in assay [9] it was -0.368. Also, the “glycan array binding signal (z-score)” value in assay [10] was -0.399; with Gal(a1-4)GlcNAc, -0.3; with Gal(a1-6)Glc, -0.349; with Gal(b1-2)Gal, 0.175; with Gal(b1-3)Gal, -0.229; with Gal(b1-3)Gal(b1-4)GlcNAc, -0.346. In addition, the “glycan array binding signal (z-score)” value was -0.328 in the assay with Gal(b1-3)GalNAc, -0.311 in assay [11], -0.363 in assay [12] and -0.24 in the assay with Gal(b1-3)GalNAc(b1-3)Gal.
